{"sequences": {"note": "By UniProt entry, the sequences of proteins in these tests, tags left out. Where a name states a change or a piece, a line headed by the entry shows the natural chain unless it says otherwise. Chains listed by the source or under a name are the forms on record and can include a tag or linker.", "UniProt Q13546": "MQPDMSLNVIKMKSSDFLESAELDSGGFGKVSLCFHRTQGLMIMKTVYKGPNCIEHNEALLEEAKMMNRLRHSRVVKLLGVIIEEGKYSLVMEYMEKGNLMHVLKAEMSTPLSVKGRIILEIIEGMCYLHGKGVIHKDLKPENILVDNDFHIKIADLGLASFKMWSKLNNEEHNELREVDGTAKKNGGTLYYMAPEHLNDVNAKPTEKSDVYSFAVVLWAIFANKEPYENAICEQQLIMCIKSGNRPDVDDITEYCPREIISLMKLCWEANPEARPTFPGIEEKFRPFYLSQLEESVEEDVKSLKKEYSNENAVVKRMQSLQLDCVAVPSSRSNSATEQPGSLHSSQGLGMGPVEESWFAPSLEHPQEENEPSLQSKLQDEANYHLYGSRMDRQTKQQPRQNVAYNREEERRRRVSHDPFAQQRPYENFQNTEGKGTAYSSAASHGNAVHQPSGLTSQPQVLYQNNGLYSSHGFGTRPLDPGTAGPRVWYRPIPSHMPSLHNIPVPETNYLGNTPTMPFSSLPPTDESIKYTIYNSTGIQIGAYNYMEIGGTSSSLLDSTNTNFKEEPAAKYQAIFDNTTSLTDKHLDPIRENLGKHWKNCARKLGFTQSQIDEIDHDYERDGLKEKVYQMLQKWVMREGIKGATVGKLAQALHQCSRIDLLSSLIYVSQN", "RIPK1 (mutRHIM), the RHIM mutant RIPK1 with AAAA substitutions in IQIG(539-542), Myc-tagged (Q13546, form named)": "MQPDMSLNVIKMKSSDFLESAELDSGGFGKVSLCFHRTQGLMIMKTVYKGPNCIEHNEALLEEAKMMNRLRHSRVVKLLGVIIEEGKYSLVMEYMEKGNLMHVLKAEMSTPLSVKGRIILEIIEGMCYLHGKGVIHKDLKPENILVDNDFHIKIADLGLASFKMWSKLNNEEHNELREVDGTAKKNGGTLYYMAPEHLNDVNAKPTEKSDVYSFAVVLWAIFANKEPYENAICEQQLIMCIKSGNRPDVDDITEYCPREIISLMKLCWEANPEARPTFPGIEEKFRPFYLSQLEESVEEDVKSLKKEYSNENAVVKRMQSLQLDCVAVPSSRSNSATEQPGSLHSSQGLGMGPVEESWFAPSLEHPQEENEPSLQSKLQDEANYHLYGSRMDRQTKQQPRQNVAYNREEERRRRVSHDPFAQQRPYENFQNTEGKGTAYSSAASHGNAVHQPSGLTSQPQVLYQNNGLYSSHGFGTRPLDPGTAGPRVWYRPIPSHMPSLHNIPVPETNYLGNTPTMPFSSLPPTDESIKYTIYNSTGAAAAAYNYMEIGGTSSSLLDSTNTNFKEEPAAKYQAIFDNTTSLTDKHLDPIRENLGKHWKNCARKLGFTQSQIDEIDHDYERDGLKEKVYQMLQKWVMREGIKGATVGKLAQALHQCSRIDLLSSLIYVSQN", "UniProt Q9Y572": "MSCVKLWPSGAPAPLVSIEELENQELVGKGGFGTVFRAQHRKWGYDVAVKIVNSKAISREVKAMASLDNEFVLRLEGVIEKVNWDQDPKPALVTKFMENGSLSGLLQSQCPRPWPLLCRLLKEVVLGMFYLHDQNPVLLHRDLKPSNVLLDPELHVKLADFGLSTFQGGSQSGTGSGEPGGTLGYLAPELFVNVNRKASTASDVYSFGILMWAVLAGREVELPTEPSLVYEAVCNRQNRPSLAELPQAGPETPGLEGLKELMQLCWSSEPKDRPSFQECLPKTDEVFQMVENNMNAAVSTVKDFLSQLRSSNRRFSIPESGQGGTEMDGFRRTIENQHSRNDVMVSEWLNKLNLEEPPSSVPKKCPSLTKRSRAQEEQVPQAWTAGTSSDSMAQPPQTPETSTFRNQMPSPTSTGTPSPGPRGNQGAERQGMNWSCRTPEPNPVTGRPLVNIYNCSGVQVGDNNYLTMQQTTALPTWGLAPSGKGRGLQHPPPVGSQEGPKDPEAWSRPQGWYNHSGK", "RIPK3 (mutRHIM), the RHIM mutant RIPK3 with AAAA substitutions in VQVG(458-461), Myc-tagged (Q9Y572, form named)": "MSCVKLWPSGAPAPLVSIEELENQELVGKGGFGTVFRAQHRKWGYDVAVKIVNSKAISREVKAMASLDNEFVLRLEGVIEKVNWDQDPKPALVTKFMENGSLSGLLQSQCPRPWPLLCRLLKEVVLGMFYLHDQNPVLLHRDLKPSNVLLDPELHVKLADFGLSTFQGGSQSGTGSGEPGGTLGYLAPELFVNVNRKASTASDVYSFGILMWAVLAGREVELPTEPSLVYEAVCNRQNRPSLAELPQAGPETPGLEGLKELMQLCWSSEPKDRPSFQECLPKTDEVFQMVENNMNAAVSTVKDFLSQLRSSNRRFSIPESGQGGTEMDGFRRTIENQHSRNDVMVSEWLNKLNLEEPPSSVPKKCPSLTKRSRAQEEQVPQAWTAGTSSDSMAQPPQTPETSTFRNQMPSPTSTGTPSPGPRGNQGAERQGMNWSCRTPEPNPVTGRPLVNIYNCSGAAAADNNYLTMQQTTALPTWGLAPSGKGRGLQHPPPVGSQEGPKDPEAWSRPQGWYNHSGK", "UniProt P03230": "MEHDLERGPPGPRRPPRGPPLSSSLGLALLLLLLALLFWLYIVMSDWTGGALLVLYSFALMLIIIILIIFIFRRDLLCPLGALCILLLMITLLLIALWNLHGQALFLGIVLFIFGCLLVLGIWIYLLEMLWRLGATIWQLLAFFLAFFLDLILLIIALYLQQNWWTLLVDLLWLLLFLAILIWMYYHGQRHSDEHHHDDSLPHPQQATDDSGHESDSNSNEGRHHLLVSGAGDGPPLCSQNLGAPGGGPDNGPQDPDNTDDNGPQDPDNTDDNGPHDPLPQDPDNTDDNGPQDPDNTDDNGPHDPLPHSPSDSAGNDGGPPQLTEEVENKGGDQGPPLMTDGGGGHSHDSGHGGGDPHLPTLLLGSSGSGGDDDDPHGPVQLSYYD", "UniProt P03182": "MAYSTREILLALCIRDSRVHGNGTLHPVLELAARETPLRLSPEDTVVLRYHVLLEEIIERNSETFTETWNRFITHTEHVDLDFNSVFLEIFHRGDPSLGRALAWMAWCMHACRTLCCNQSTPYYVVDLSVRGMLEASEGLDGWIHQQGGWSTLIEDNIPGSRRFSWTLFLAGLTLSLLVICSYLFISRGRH"}, "source": "paper PMC5833833", "key": {"[1]": {"target": "endogenous RIPK1 (human (endogenous in NP460hTERT, NP460hTERT-EBV, CNE1, CNE1-LMP1)) (UniProt Q13546)", "experiment": "proximity ligation"}, "[2]": {"target": "endogenous RIPK3 (human (endogenous in NP460hTERT, NP460hTERT-EBV, CNE1, CNE1-LMP1)) (UniProt Q9Y572)", "experiment": "proximity ligation"}, "[3]": {"target": "endogenous RIPK1 (human (endogenous in NP460hTERT, NP460hTERT-EBV, CNE1, CNE1-LMP1)) (UniProt Q13546)", "experiment": "co-IP"}, "[4]": {"target": "endogenous RIPK3 (human (endogenous in NP460hTERT, NP460hTERT-EBV, CNE1, CNE1-LMP1)) (UniProt Q9Y572)", "experiment": "co-IP"}, "[5]": {"target": "Flag-RIPK3 (receptor-interacting protein kinase 3) (UniProt Q9Y572)", "experiment": "co-IP"}, "[6]": {"target": "Myc-RIPK1 (receptor-interacting protein kinase 1) (UniProt Q13546)", "experiment": "co-IP"}, "[7]": {"target": "RIPK1 (mutRHIM), the RHIM mutant RIPK1 with AAAA substitutions in IQIG(539-542), Myc-tagged (UniProt Q13546)", "experiment": "co-IP"}, "[8]": {"target": "RIPK3 (mutRHIM), the RHIM mutant RIPK3 with AAAA substitutions in VQVG(458-461), Myc-tagged (UniProt Q9Y572)", "experiment": "co-IP"}, "[9]": {"target": "RIPK1 (mutRHIM), the RHIM mutant RIPK1 with AAAA substitutions in IQIG(539-542), Myc-tagged (UniProt Q13546)", "experiment": "proximity ligation"}, "[10]": {"target": "Myc-RIPK1 (receptor-interacting protein kinase 1) (UniProt Q13546)", "experiment": "proximity ligation"}, "[11]": {"target": "RIPK3 (mutRHIM), the RHIM mutant RIPK3 with AAAA substitutions in VQVG(458-461), Myc-tagged (UniProt Q9Y572)", "experiment": "proximity ligation"}, "[12]": {"target": "Myc-RIPK3 (full-length RIPK3 in GV219 vector) (UniProt Q9Y572)", "experiment": "proximity ligation"}}, "note": "These are yes or no findings as the source states them, for the method shown. In cells and extracts the contact can be indirect. Some entries that bind do so weakly or less than the wild type."}
{"substance": "LMP1 expressed by EBV in NP460hTERT-EBV cells (from UniProt P03230)", "values": [{"measurement": "binding", "setting": "[1]", "value": "binds"}, {"measurement": "binding", "setting": "[2]", "value": "binds"}]}
{"substance": "LMP1 in LMP1-overexpressing nasopharyngeal carcinoma cells (CNE1-LMP1) (from UniProt P03230)", "values": [{"measurement": "binding", "setting": "[3]", "value": "binds"}, {"measurement": "binding", "setting": "[4]", "value": "binds"}]}
{"substance": "Epstein-Barr virus encoded latent membrane protein 1 (LMP1), expressed from pSG5-LMP1 (from UniProt P03230)", "values": [{"measurement": "binding", "setting": "[5]", "value": "binds"}, {"measurement": "binding", "setting": "[6]", "value": "binds"}]}
{"substance": "endogenous RIPK1 (from UniProt Q13546 1-671)", "values": [{"measurement": "binding", "setting": "[4]", "value": "binds"}, {"measurement": "binding", "setting": "[2]", "value": "binds"}]}
{"substance": "Flag-LMP1 (full-length LMP1 in GV141 vector) (from UniProt P03230)", "values": [{"measurement": "binding", "setting": "[7]", "value": "binds"}, {"measurement": "binding", "setting": "[8]", "value": "binds"}, {"measurement": "binding", "setting": "[9]", "value": "binds"}, {"measurement": "binding", "setting": "[10]", "value": "binds"}, {"measurement": "binding", "setting": "[11]", "value": "binds"}, {"measurement": "binding", "setting": "[12]", "value": "binds"}]}
{"substance": "Myc-RIPK1 (receptor-interacting protein kinase 1) (from UniProt Q13546 1-671)", "values": [{"measurement": "binding", "setting": "[5]", "value": "binds"}]}
{"substance": "Flag-BHRF1 (EBV early lytic cycle protein BHRF1) (from UniProt P03182 1-191)", "values": [{"measurement": "binding", "setting": "[10]", "value": "no binding"}, {"measurement": "binding", "setting": "[12]", "value": "no binding"}]}
